Source: publication PMC5733242
Results are given in words; binding and its absence hold for the method and conditions named. In cells and extracts the contact can be indirect. Some results given as binding are weak or reduced against the parent protein; the word gives no strength. For some of these results: Tags and fused reporters may be left off the sequences shown.

B1: DSBH domain of ALKBH5 alone (domain or fragment, UniProt Q6P6C2 191-292)
chain: VINDYQPGGCIVSHVDPIHIFERPIVSVSFFSDSALCFGCKFQFKPIRVSEPVLSLPVRRGSVTVLSGYAADEITHCIRPQDIKERRAVIILRKTRLDAPRL
B2: FLAG-DDX3 (full-length DDX3), O00571 1-662 (protein)
chain: MSHVAVENALGLDQQFAGLDLNSSDNQSGGSTASKGRYIPPHLRNREATKGFYDKDSSGWSSSKDKDAYSSFGSRSDSRGKSSFFSDRGSGSRGRFDDRGRSDYDGIGSRGDRSGFGKFERGGNSRWCDKSDEDDWSKPLPPSERLEQELFSGGNTGINFEKYDDIPVEATGNNCPPHIESFSDVEMGEIIMGNIELTRYTRPTPVQKHAIPIIKEKRDLMACAQTGSGKTAAFLLPILSQIYSDGPGEALRAMKENGRYGRRKQYPISLVLAPTRELAVQIYEEARKFSYRSRVRPCVVYGGADIGQQIRDLERGCHLLVATPGRLVDMMERGKIGLDFCKYLVLDEADRMLDMGFEPQIRRIVEQDTMPPKGVRHTMMFSATFPKEIQMLARDFLDEYIFLAVGRVGSTSENITQKVVWVEESDKRSFLLDLLNATGKDSLTLVFVETKKGADSLEDFLYHEGYACTSIHGDRSQRDREEALHQFRSGKSPILVATAVAARGLDISNVKHVINFDLPSDIEEYVHRIGRTGRVGNLGLATSFFNERNINITKDLLDLLVEAKQEVPSWLENMAYEHHYKGSSRGRSKSSRFSGGFGARDYRQSSGASSSSFSSSRASSSRSGGGGHGSSRGFGGGGYGGFYNSDGYGGNYNSQGVDWWGN

Columns and labels:
Assay in all cases: co-IP; HEK293T cells co-transfected with FLAG-DDX3 and HA-tagged constructs (cell line not named for the ALKBH5 deletion series); cells UV cross-linked, modified RIPA lysis buffer (150 mM NaCl, 50 mM Tris pH 8.0, 1% Nonidet P-40, 0.5% deoxycholate), sonicated; antibody on Dynabeads Protein G, 2 h at 4°C; Western blot; DDX3-ALKBH5 also with or without RNase A
[1] = target: ATP-binding domain of DDX3 alone (UniProt O00571)
[2] = target: FLAG-DDX3 (full-length DDX3) (UniProt O00571)
FTO, Q9C0B1 = details: remark: other sources report otherwise
METTL3, Q86U44 = details: remark: other sources report otherwise

binding [1]	binding [2]	binding (FTO, Q9C0B1)	binding (METTL3, Q86U44)	Binder
binds	binds			B1
		no binding	no binding	B2
